Reference: article PMC4336329 (PLoS ONE, 2015)
The whole screen tested about 310,000 compounds, of which about 14,000 (4.5%) showed an effect of 50% or more. The effect is printed as a negative number. The list shows a part of the results.

What follows are compounds tested against human ether-à-go-go-related gene (hERG) potassium channel (human, UniProt Q12809) (assay: primary screen, population patch clamp on CHO cells stably expressing hERG).
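Note: peak tail current of the secondary pulse compared with the same well before compound.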

human ether-à-go-go-related gene (hERG) potassium channel, sequence (Q12809 whole entry, looked up): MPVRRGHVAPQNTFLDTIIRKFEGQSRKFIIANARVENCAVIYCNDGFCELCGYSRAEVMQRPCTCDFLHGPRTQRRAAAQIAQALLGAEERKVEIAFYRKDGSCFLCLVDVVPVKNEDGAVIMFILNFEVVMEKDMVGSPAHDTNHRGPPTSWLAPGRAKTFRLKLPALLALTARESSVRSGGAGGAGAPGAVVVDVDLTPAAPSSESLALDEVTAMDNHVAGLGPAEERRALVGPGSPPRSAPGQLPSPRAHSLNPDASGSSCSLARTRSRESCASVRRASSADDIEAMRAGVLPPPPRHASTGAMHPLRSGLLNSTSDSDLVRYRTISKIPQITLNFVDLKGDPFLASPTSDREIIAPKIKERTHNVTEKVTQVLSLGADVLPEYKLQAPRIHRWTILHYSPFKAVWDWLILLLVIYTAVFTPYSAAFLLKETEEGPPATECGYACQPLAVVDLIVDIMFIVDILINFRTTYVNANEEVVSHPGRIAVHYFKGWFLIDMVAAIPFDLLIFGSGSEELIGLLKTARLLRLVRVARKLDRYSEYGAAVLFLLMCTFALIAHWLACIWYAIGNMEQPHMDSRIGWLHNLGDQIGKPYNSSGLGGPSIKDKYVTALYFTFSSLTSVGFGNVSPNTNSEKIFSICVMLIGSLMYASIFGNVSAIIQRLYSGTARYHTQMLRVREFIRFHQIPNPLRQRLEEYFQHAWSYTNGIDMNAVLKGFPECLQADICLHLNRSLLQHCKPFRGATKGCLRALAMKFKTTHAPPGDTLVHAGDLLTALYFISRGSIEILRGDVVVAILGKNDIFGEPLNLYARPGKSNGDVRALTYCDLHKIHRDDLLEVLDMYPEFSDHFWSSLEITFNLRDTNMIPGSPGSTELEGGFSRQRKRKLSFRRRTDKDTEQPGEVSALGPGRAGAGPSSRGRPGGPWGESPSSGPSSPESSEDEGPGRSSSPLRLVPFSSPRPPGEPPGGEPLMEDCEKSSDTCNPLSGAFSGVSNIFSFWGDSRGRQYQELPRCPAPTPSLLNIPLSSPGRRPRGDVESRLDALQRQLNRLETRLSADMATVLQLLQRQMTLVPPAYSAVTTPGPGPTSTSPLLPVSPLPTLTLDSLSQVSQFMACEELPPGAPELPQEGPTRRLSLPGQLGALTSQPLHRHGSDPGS

Row | SMILES | hERG current change (%, negative = inhibition) at 10uM [%]
1 | CCc1ccc(N=C2NC(=O)CS2)cc1 | 3.68
2 | Cn1c(N)c(C(=O)CSc2ccc3c(c2)OCCO3)c(=O)n(C)c1=O | 12.2
3 | O=C1NC(=Nc2ccccc2)SC1Cc1ccccc1 (stereo not drawn) | 5.97
4 | COc1cc(C(=O)ON=C2C(C)=CC(=O)C=C2C)cc(OC)c1OC | -11.9
5 | Cc1nn(Cc2ccc(F)cc2)c(C)c1NC(=O)c1noc2c1CCCCC2 | 2.3
6 | Cc1ccc2nc3n(c(=O)c2c1)-c1ccccc1C(=O)NC3Cc1ccccc1 (stereo not drawn) | 5.22
7 | COP(=O)(OC)C1(O)C(=O)Nc2ccc(Br)cc21 (stereo not drawn) | 10.2
8 | COc1ccccc1NC(=O)C1CC(C(C)C)OC1=O (stereo not drawn) | 7.27
9 | COC(=O)C(CCSC)NC(=O)c1cc2c(n(-c3ccccc3)c1=O)CCCC2=O (stereo not drawn) | -1.42
10 | Cc1ccc(NC(=O)c2ccc(S(=O)(=O)NCC3CCCO3)cc2)cc1 (stereo not drawn) | -1.42
11 | O=C(COc1ncnc2cc([N+](=O)[O-])ccc12)NC(=O)NC1CCCCC1 | -56.5
12 | Cc1ccc(N/C(N)=N/c2nc(C)cc(C)n2)cc1 | -68.7
13 | O=C(/C=C\Nc1ccc2c(c1)OCO2)c1ccc2c(c1)OCO2 | 27.3
14 | CCC(C)NC(=O)CNS(=O)(=O)c1ccc(C)cc1 (stereo not drawn) | 5.31
15 | Nc1[nH]c(=O)nc(Nc2ccccc2)c1N=O | -4.44
16 | CCCCN1C(=O)C(O)=C(C(C)=O)C1c1ccc(OC)cc1OC (stereo not drawn) | -11.1
17 | COc1ccc(CNC(=O)c2cc3c(=O)n4cccc(C)c4nc3n(CC3CCCO3)c2=N)cc1 (stereo not drawn) | -77.2
18 | CCNS(=O)(=O)c1cc(Br)ccc1OC | -8.54
19 | COc1ccc(NC(=O)C2CC(=O)OC2c2ccccc2)cc1 (stereo not drawn) | 6.71
20 | CCOc1cc(/C=N/NC(=O)C(=O)N/N=C/c2ccc(O)c(OCC)c2)ccc1O | 23.2
21 | Cc1[nH]c2ccccc2c1/C=C/c1nc2ccccc2c(=O)[nH]1 | 6.46
22 | Cc1nn(C)c(=O)n1N(C)c1ncc(C(F)(F)F)cc1Cl | 23.8
23 | O=C1NC(=O)C(CCc2ccncc2)(Cc2ccc(OCc3ccccc3)cc2)C(=O)N1 | 11.8

Row | SMILES | hERG current change (%, negative = inhibition) at 10uM [%]
24 | NC(=O)c1cc(-c2cccnc2)nc2ccc(Br)cc12 | 10.2
25 | C=CCOC(=O)/C(=C\c1ccc(OC)cc1)NC(=O)c1ccco1 | -7.71
26 | O=C(NCc1cccnc1)C(=O)Nc1nc(C23CC4CC(CC(C4)C2)C3)cs1 | 12.1
27 | CC(=O)NCc1nc2ccccc2n1Cc1ccccc1C | -0.286
28 | CCCOc1cccc(C(=O)NCCCNC(=O)c2cccnc2)c1 | -20.2
29 | COCCn1c(SCc2ccc(OC)c(F)c2)nc2ccccc2c1=O | -2.82
30 | COc1ccc(NC(=O)CNS(=O)(=O)c2ccc(Cl)cc2)cc1OC | -7.17
31 | C=CCc1cccc(CNc2cnc3ccccc3c2)c1O | -4.21
32 | COc1cccc(CSc2nc(N)cc(N)n2)c1 | 14
33 | CC1CCCCC1NC(=O)CC1Oc2ccccc2NC1=O (stereo not drawn) | 0.244
34 | CC(C)C(=O)N1CCC(n2nccc2NC(=O)CCOc2ccccc2)CC1 | 0.0951
35 | CCCNS(=O)(=O)c1cccc(C(=O)OCc2cc(=O)oc3cc(OC)ccc23)c1 | -11.2
36 | CCNC(=S)NNC(=O)c1ccncc1 | 3.18
37 | CCc1noc(C)c1C(=O)Nc1nc2ccc(F)cc2s1 | -7.36
38 | O=C(CSc1nnc(COc2cccc3ccccc23)o1)N1CCN(C(=O)c2ccco2)CC1 | -65.1
39 | Cc1c(C(C)NC(=O)c2cc(COc3cccc4cnccc34)on2)cnn1C (stereo not drawn) | -55.6
40 | CC(=O)Nc1c2c(nn1-c1ccc(C)cc1)CSC2 | 10.9
41 | COC(=O)/C(=C\C(=O)c1ccccc1)Nc1cccc(C(F)(F)F)c1 | -2.94
42 | CC(NC(=O)c1ccccc1Br)c1ccc2c(c1)CCCC2 (stereo not drawn) | -24.1
43 | O=c1ccc2ccccc2o1 | 16.1
44 | COc1ccc(C2CC(c3cccs3)=NN2C(=O)CSc2nc3ccccc3s2)cc1 (stereo not drawn) | -6.91
45 | Cc1ccc(NC(=O)N2CCCC2C(=O)Nc2ccc(-n3cnnn3)c(C)c2)cc1 (stereo not drawn) | -18.7
46 | COc1ccc(N2CCN(C(=O)CNC(=O)c3ccc4ccccc4c3)CC2)cc1 | 4.98

Row | SMILES | hERG current change (%, negative = inhibition) at 10uM [%]
47 | Cn1c(SCc2cccc(Br)c2)nc2c1c(=O)[nH]c(=O)n2C | 15.5
48 | CN(C)CCNC(=S)Nc1ccccc1C(C)(C)C | 31.4
49 | CCOCCCNC(=O)C(=O)NCCCOCC | 0.952
50 | CC(C)Nc1nc(NC(C)C)nc(Oc2ccc(/C=N/O)cc2)n1 | -6.53
51 | Cc1cc(C)c(C#N)c(SCC(=O)N(C)C2CCCCC2)n1 | -19.2
52 | O=C(NCC1CCCN(Cc2ccc3nonc3c2)C1)c1ccc(F)cc1 (stereo not drawn) | -60.8
53 | CC(C)c1ccc(OCC(=O)NC(=S)Nc2ccc3c4c(cccc24)CC3)cc1 | -3.9
54 | Cc1oc2cc(OC(C)C(=O)O)ccc2c(=O)c1Oc1ccccc1 (stereo not drawn) | 15.5
55 | Cc1cccc[n+]1CC(=O)N1c2ccccc2Sc2ccccc21.[Cl-] | 18.7
56 | CCC(NC(=O)c1ccc2nc(Cc3ccc(OC)cc3)oc2c1)c1ccncc1 (stereo not drawn) | -9.99
57 | COc1ccc(C(=O)C2CCN(CC(=O)Nc3cc(C)cc(C)c3)CC2)cc1 | -65.2
58 | CCOC(=O)c1c(N2C(=O)CC(Sc3ccccc3C(=O)O)C2=O)sc2c1CCCC2 (stereo not drawn) | 27.9
59 | CCOC(=O)CNC(=S)N(CCCN1CCN(C)CC1)Cc1cccs1 | -43.5
60 | COc1ccc(CC(=O)n2c(CC#N)nc3ccccc32)cc1OC | 14
61 | Cc1nn(-c2ccccc2)nc1CNC(=O)c1ncoc1-c1ccccc1 | -13.1
62 | CNC(=O)N(O)C1N(/N=C/c2ccccc2F)C(=S)SC1(C)C (stereo not drawn) | 9.61
63 | COC(=O)Cn1c2ccc(Cl)cc2c2nc(C)sc21 | 5.43
64 | O=C(N/N=C/c1cc2c(cc1Br)OCO2)c1ccccn1 | 22.6
65 | Cc1cc(Cl)ccc1NC(=O)C1CCCN1C(=O)c1cccs1 (stereo not drawn) | 24.9
66 | COC(=O)C(C)NS(=O)(=O)c1ccc(NC(C)=O)cc1 (stereo not drawn) | -2.68
67 | Nc1nc(Nc2cccc(Cl)c2)n[nH]1 | 9.19
68 | COC(=O)C1=CO[C@@H](C)[C@@H]2CN3CC[C@@]4(C(=O)Nc5ccccc54)[C@@H]3C[C@H]12 | -0.647
69 | COc1ccc(Cl)cc1N1C(=O)CC(N2CCc3ccccc32)C1=O (stereo not drawn) | -11

Row | SMILES | hERG current change (%, negative = inhibition) at 10uM [%]
70 | CCOc1ccc(Br)cc1C(=O)Nc1ccc(C(=O)NCC(C)C)cc1 | -10.5
71 | COc1ccc(-n2c(SCC(=O)NCC3CCCO3)nc3c([nH]c4ccccc43)c2=O)cc1 (stereo not drawn) | 20.3
72 | C=CCN1C2CCCC1CC(NC(=S)Nc1ccc(Cl)cc1)C2 (stereo not drawn) | -39.8
73 | CCOC(=O)c1ccc(NC(=S)Nc2ccc(Br)cc2N)cc1 | 20.6
74 | O=C(COc1ccc2ccc(=O)oc2c1)N1CCC(C(=O)O)(c2ccccc2)CC1 | 15.3
75 | Cc1ccc(Oc2nc3ccccn3c(=O)c2/C=C(\C#N)C(=O)Nc2c(C)n(C)n(-c3ccccc3)c2=O)c(C)c1 | 7.18
76 | O=c1ccc2ccc(Oc3ccc([N+](=O)[O-])cc3Cl)cc2o1 | 5.54
77 | COc1ccc(S(=O)(=O)NC(C)C(=O)NCc2ccccn2)cc1Cl (stereo not drawn) | 7.6
78 | CCOc1ccc(CCNC(=O)C2CCCN(S(=O)(=O)c3c(C)n[nH]c3C)C2)cc1OCC (stereo not drawn) | 3.3
79 | O=C(CCCN1C(=O)C2C3C=CC(C3)C2C1=O)N1CCN(c2ccccc2)CC1 (stereo not drawn) | -16.6
80 | CCn1c2ccccc2c2cc(NC(=O)CSc3nnc(-c4ccccc4)o3)ccc21 | 3.65
81 | O=C(O)c1cc(OCc2ccccc2)cc(OCc2ccccc2)c1 | 10.8
82 | Cc1ccc(OCC(=O)Nc2ccccc2C(=O)NC2CC2)cc1 | 2.02
83 | O=C(O)c1ccc(Cl)c(S(=O)(=O)Nc2cccc(C(=O)Nc3cccc(C(F)(F)F)c3)c2)c1 | 16.4
84 | COc1ccccc1OCCNc1nc2c(c(=O)n(C)c(=O)n2C)n1C | -2.23
85 | CCOC(=O)C1=C(O)/C(=C/c2ccccn2)SC1=Nc1ccc(Cl)cc1 | 10.5
86 | O=C(CCNC(=O)N1CC(=O)Nc2ccccc21)Nc1ccc(Br)cc1F | 19.5
87 | Cn1c(C2CCCCC2)nc2cc(N)ccc21 | 11.2
88 | Cc1ccc(S(=O)(=O)Nc2cccc(C(=O)NCC3CCCO3)c2)cc1F (stereo not drawn) | 2.12
89 | COc1ccc(CN(C)CCc2ccccn2)cc1OC.O=C(O)C(=O)O | -5.06
90 | CCc1ccc2oc(-c3cc(N)ccc3Cl)nc2c1 | 13.5
